The whole screen tested about 420,000 compounds, of which about 50,000 (12%) were called active. This list was built around the results that the source calls inconclusive (neither active nor inactive); the mix of calls is not that of the screen. The call rests on the fitted dose curve; in most records, active means well fitted inhibition curve with a large enough effect; inconclusive means small, poorly fitted or top-dose-only effect; inactive means flat fitted curve, though single readings scatter. No potency is given beside an inconclusive call; the fits are too rough.
Experiment: qHTS for Inhibitors of human tyrosyl-DNA phosphodiesterase 1 (TDP1): qHTS in cells in presence of CPT; further: nearly all actives have a fitted effect of over 55% in size
Details: chicken DT40 Tdp1-/-;hTDP1 cells + 20 nM CPT, ATP luminescence, 48 h; activity change, negative = growth inhibition: at 46.2 µM (top of the series) unless noted
In short: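 Chicken DT40 Tdp1-/- cells stably complemented with human TDP1 were seeded at 400 cells/well in medium containing 20 nM camptothecin, exposed to pin-transferred compounds, and grown at 37 °C for at least 48 hr. Viability was read as ATP luminescence.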
On the % scale 0 is the no-effect control and ±100 the full control effect; potency means the concentration at half of the fitted maximal effect; tags describe the fitted curve by direction and shape.

| Compound | Potency | activity change, negative = growth inhibition |
| --- | --- | --- |
| CN(C(=O)CSc1nc2c(c(=O)[nH]1)CCCC2)C1CCCCC1 | inconclusive [inhibitor, single point] | – |
| S=C(NCc1ccccn1)Nc1cccc(Cl)c1 | inconclusive [inhibitor, single point] | – |
| COc1ccc(C2=NN(c3ccc(C=O)cc3)C(c3ccccc3)C2)cc1 (stereo not given) | inconclusive [inhibitor, single point] | – |
| COc1ccc(NC(=O)CSCc2cc(=O)n3ccsc3n2)cc1 | – | inactive: -1.24% |
| CCOC(=O)CNC(=O)CSc1nc(C(C)C)nc2c1cnn2-c1ccccc1 | – | inactive: -22% |
| CCOc1ccccc1CN1CCN(Cc2cc(=O)c3ccccc3[nH]2)CC1CCO (stereo not given) | inconclusive [inhibitor, single point] | – |
| C=CCN(CC=C)S(=O)(=O)c1ccc(NC(=S)NC(=O)/C=C/c2cccc3ccccc23)cc1 | inconclusive [inhibitor, single point] | – |
| Cc1nc2cnc(OCc3ccccc3)nc2n(CCc2ccccc2)c1=O | inconclusive [inhibitor, single point] | – |
| Cc1ccc(C(=O)NCCSC(C)(C)C)cc1[N+](=O)[O-] | inconclusive [inhibitor, single point] | – |
| CCS(=O)(=O)c1ncc(Cl)c(C(=O)N2CCN(c3cccc(Cl)c3)CC2)n1 | active: 0.259 µM | – |
| [O-][n+]1ccccc1SSc1cccc[n+]1[O-] | active: 0.106 µM | – |
| COn1c(SCc2ccc(Cl)cc2)nc2ccccc2c1=O | inconclusive [inhibitor, partial curve] | – |
| Cc1ccc(-n2c(N)c(S(=O)(=O)c3ccccc3)c3nc4ccccc4nc32)cc1 | inconclusive [inhibitor, single point] | – |
| COCCOC(=O)N/C=C\c1nc2ccccc2c(=O)[nH]1 | inconclusive [inhibitor, single point] | – |
| CC(C)N(Cc1ccccc1)S(=O)(=O)c1ccc(-n2cccn2)cc1 | inconclusive [inhibitor, single point] | – |
| COC(=O)c1ccc(/C=N/Nc2nc(N3CCCCC3)nc(N3CCCCC3)n2)cc1 | – | inactive: -9.47% |
| O=C(c1ccco1)N1CCN(C(c2coc3ccc(Cl)cc3c2=O)c2nnnn2C2CCCC2)CC1 (stereo not given) | inconclusive [inhibitor, single point] | – |
| C=CCc1c(O)c(CC)cc2c(C)cc(=O)oc12 | – | inactive: 24.2% |
| COc1cc(C(=O)OCCc2c(C)nc3nc[nH]n3c2=O)cc(OC)c1OC | – | inactive: 10.3% |
| COc1ccc(-c2nnc3c4ccccc4c(C)nn23)cc1S(=O)(=O)N1CCN(CCO)CC1 | inconclusive [inhibitor, single point] | – |
| COc1ccc(CNC(=O)c2cn(Cc3ccc(S(=O)(=O)N(C)C)cc3)c(=O)s2)cc1 | inconclusive [inhibitor, single point] | – |
| N#Cc1c(-c2ccccc2)ccn(Cc2ccc(Cl)cc2)c1=O | inconclusive [inhibitor, single point] | – |
| OCc1cccc[n+]1Cc1ccccc1 | – | inactive: 3.59% |

| Compound | Potency | activity change, negative = growth inhibition |
| --- | --- | --- |
| CCN(CC)c1nc(-c2ccccc2)nc2ccccc12 | active: 14.6 µM | – |
| CCSc1nnc(NC(=O)c2ccc3nc[nH]c3c2)s1 | inconclusive [inhibitor, single point] | – |
| C#CCOCCOCCOCCNc1nc(N2CCOCC2)nc(N2CCN(C(=O)CCCCCCCCCCNC(=O)[C@@H]([C@H](C)O)n3cc(C)nn3)CC2)n1 | inconclusive [inhibitor, single point] | – |
| Cc1cnc(CNc2ncnc3ccc(-c4ccccc4C(F)(F)F)cc23)cn1 | inconclusive [inhibitor, single point] | – |
| Cc1cc(Oc2ccc(C)c(Cl)c2)nc(SCC(=O)c2ccccc2)n1 | inconclusive [inhibitor, partial curve] | – |
| COc1ccc(C(=O)NNC2=C(C(=O)C(F)(F)F)CCC2)cc1 | active: 0.731 µM | – |
| CC1c2ccccc2SC(CCCN(C)C)c2ccccc21 (stereo not given) | active: 16.4 µM | – |
| Cc1ccc(CNS(=O)(=O)c2cc(C(=O)Nc3cccc(C(F)(F)F)c3)ccc2F)cc1 | inconclusive [inhibitor, single point] | – |
| Cc1ccc(S(=O)(=O)N2CCC(C(=O)Nc3ccc(S(=O)(=O)N4CCOCC4)cc3)CC2)cc1 | inconclusive [inhibitor, single point] | – |
| COc1ccc(C(=O)OC2CCN(c3ncc(C(F)(F)F)cc3Cl)CC2)cc1 | inconclusive [inhibitor, single point] | – |
| COCCNC(=S)N1CCN(Cc2cccc(OC)c2)CC1 | – | inactive: -20.4% |
| O=C1CSC(=S)N1/N=C/c1ccc2c(c1)OCCO2 | inconclusive [inhibitor, single point] | – |
| CC(=O)Nc1ccc(C(=O)N2CCCC(c3cc(C(=O)Nc4ccccc4)no3)C2)cc1 (stereo not given) | inconclusive [inhibitor, single point] | – |
| Cc1ccc(S(=O)(=O)N2[C@@H](c3ccc(F)cc3)C(C(=O)O)=CC[C@H]2c2cccs2)cc1 | – | inactive: -11.4% |
| Cc1ccc(S(=O)(=O)N(C)c2ccccc2C(=O)Nc2c(F)cccc2F)cc1 | – | inactive: -13.1% |
| CN(Cc1nc2ccccc2c(=O)[nH]1)C(=O)c1cccc(NC(=O)c2cccs2)c1 | inconclusive [inhibitor, partial curve] | – |
| CCCCOc1ccc(Nc2cc(Cl)ccc2C(=O)O)cn1 | – | inactive: 3.77% |
| O=C(NCCc1ccccc1)c1ccc2c(c1)S(=O)(=O)c1cc(Cl)ccc1C2=O | active: 20.6 µM | – |
| COc1ccc(CNCCC(c2ccccc2)c2ccc(OC(C)C)cc2)cc1OC (stereo not given) | active: 23.1 µM | – |
| CCOC(=O)CN1C(=O)N[C@@H](c2ccc(Br)cc2)C(C(=O)OC)=C1C | inconclusive [inhibitor, single point] | – |
| CC(C)(Oc1ccc(Cl)cc1)C(=O)O | inactive | – |
| O=S(=O)(CCNCc1ccccc1)NC1CCCCC1 | inconclusive [inhibitor, single point] | – |
